# From the supplement of paper PMC8728848
# The other results are listed elsewhere or left out.
# B1: LTL (Lotus tetragonolobus), P19664 (protein)
# chain: VSFNYTEFKDDGSLILQGDAKIWTDGRLAMPTDPLVNNPKTTRSAGRALYATPVPIWDSATGNVASFVTSFNFLFVIRELKYTPTDGLVFFLAPVGTEIPSGSTGGFLGIFDGSNGFNQFVAVEFDSYHNIWDPKSLRSSHVGIDVNSIMSLKAVNWNRVSGSLEKATIIYDSQTNILSVVMTSQNGQITTIYGTIDLKTVLPEKVSVGFSATTGNPEREKHDIYSWSFTSTLKEPEEQA
# What was measured:
# Assay in all cases: glycan array binding signal (z-score within array); higher = stronger binding
# Settings in all cases: glycan notation: IUPAC condensed, linker removed
# [1] = target: Gal(b1-4)GlcNAc(b1-3)Gal(b1-4)GlcNAc(b1-3)Gal(b1-4)GlcNAc(b1-2)Man(a1-3)[Gal(b1-4)GlcNAc(b1-3)Gal(b1-4)GlcNAc(b1-3)Gal(b1-4)GlcNAc(b1-2)Man(a1-6)]Man(b1-4)GlcNAc(b1-4)GlcNAc
# How it was run: (§1)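 From the Consortium for Functional Glycomics database, 3228 arrays were curated, keeping only those whose protein sequence was available. Binding is given as a within-array Z-score averaged across arrays sharing a protein sequence and across linkers. Negative Z-scores can be read as non-binding.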
# [2] = target: Gal(b1-4)GlcNAc(b1-3)Gal(b1-4)GlcNAc(b1-3)Gal(b1-4)GlcNAc(b1-2)Man(a1-3)[Gal(b1-4)GlcNAc(b1-3)Gal(b1-4)GlcNAc(b1-3)Gal(b1-4)GlcNAc(b1-2)Man(a1-6)]Man(b1-4)GlcNAc(b1-4)[Fuc(a1-6)]GlcNAc
# How it was run: as §1
# [3] = target: Gal(b1-4)GlcNAc(b1-3)Gal(b1-4)GlcNAc(b1-3)Gal(b1-4)GlcNAc(b1-2)[Gal(b1-4)GlcNAc(b1-3)Gal(b1-4)GlcNAc(b1-3)Gal(b1-4)GlcNAc(b1-6)]Man(a1-6)[Gal(b1-4)GlcNAc(b1-3)Gal(b1-4)GlcNAc(b1-3)Gal(b1-4)GlcNAc(b1-2)Man(a1-3)]Man(b1-4)GlcNAc(b1-4)[Fuc(a1-6)]GlcNAc
# How it was run: as §1
# [4] = target: Gal(b1-4)GlcNAc(b1-3)Gal(b1-4)GlcNAc(b1-3)Gal(b1-4)GlcNAc(b1-3)Gal(b1-4)GlcNAc(b1-2)Man(a1-3)[Gal(b1-4)GlcNAc(b1-3)Gal(b1-4)GlcNAc(b1-3)Gal(b1-4)GlcNAc(b1-3)Gal(b1-4)GlcNAc(b1-2)Man(a1-6)]Man(b1-4)GlcNAc(b1-4)GlcNAc
# How it was run: as §1
# [5] = target: Gal(b1-4)GlcNAc(b1-3)Gal(b1-4)GlcNAc(b1-3)Gal(b1-4)GlcNAc(b1-3)Gal(b1-4)GlcNAc(b1-2)Man(a1-3)[Gal(b1-4)GlcNAc(b1-3)Gal(b1-4)GlcNAc(b1-3)Gal(b1-4)GlcNAc(b1-3)Gal(b1-4)GlcNAc(b1-2)Man(a1-6)]Man(b1-4)GlcNAc(b1-4)[Fuc(a1-6)]GlcNAc
# How it was run: as §1
# [6] = target: Gal(b1-4)GlcNAc(b1-3)Gal(b1-4)GlcNAc(b1-3)Gal(b1-4)GlcNAc(b1-3)Gal(b1-4)GlcNAc(b1-2)[Gal(b1-4)GlcNAc(b1-3)Gal(b1-4)GlcNAc(b1-3)Gal(b1-4)GlcNAc(b1-3)Gal(b1-4)GlcNAc(b1-6)]Man(a1-6)[Gal(b1-4)GlcNAc(b1-3)Gal(b1-4)GlcNAc(b1-3)Gal(b1-4)GlcNAc(b1-3)Gal(b1-4)GlcNAc(b1-2)Man(a1-3)]Man(b1-4)GlcNAc(b1-4)[Fuc(a1-6)]GlcNAc
# How it was run: as §1
# [7] = target: Gal(b1-4)GlcNAc(b1-3)Gal(b1-4)GlcNAc(b1-3)Gal(b1-4)GlcNAc(b1-3)Gal(b1-4)GlcNAc(b1-3)Gal(b1-4)GlcNAc(b1-2)Man(a1-3)[Gal(b1-4)GlcNAc(b1-3)Gal(b1-4)GlcNAc(b1-3)Gal(b1-4)GlcNAc(b1-3)Gal(b1-4)GlcNAc(b1-3)Gal(b1-4)GlcNAc(b1-2)Man(a1-6)]Man(b1-4)GlcNAc(b1-4)GlcNAc
# How it was run: as §1
# [8] = target: Gal(b1-4)GlcNAc(b1-3)Gal(b1-4)GlcNAc(b1-3)Gal(b1-4)GlcNAc(b1-3)Gal(b1-4)GlcNAc(b1-3)Gal(b1-4)GlcNAc(b1-2)Man(a1-3)[Gal(b1-4)GlcNAc(b1-3)Gal(b1-4)GlcNAc(b1-3)Gal(b1-4)GlcNAc(b1-3)Gal(b1-4)GlcNAc(b1-3)Gal(b1-4)GlcNAc(b1-2)Man(a1-6)]Man(b1-4)GlcNAc(b1-4)[Fuc(a1-6)]GlcNAc
# How it was run: as §1
# [9] = target: Gal(b1-4)GlcNAc(b1-3)Gal(b1-4)GlcNAc(b1-3)Gal(b1-4)GlcNAc(b1-3)Gal(b1-4)GlcNAc(b1-3)Gal(b1-4)GlcNAc(b1-2)[Gal(b1-4)GlcNAc(b1-3)Gal(b1-4)GlcNAc(b1-3)Gal(b1-4)GlcNAc(b1-3)Gal(b1-4)GlcNAc(b1-3)Gal(b1-4)GlcNAc(b1-6)]Man(a1-6)[Gal(b1-4)GlcNAc(b1-3)Gal(b1-4)GlcNAc(b1-3)Gal(b1-4)GlcNAc(b1-3)Gal(b1-4)GlcNAc(b1-3)Gal(b1-4)GlcNAc(b1-2)Man(a1-3)]Man(b1-4)GlcNAc(b1-4)[Fuc(a1-6)]GlcNAc
# How it was run: as §1
# [10] = target: Gal(b1-4)GlcNAc(b1-3)Gal(b1-4)GlcNAc(b1-3)Gal(b1-4)GlcNAc(b1-3)Gal(b1-4)GlcNAc(b1-3)Gal(b1-4)GlcNAc(b1-3)Gal(b1-4)GlcNAc(b1-2)Man(a1-3)[Gal(b1-4)GlcNAc(b1-3)Gal(b1-4)GlcNAc(b1-3)Gal(b1-4)GlcNAc(b1-3)Gal(b1-4)GlcNAc(b1-3)Gal(b1-4)GlcNAc(b1-3)Gal(b1-4)GlcNAc(b1-2)Man(a1-6)]Man(b1-4)GlcNAc(b1-4)GlcNAc
# How it was run: as §1
# [11] = target: Gal(b1-4)GlcNAc(b1-3)Gal(b1-4)GlcNAc(b1-3)GalNAc
# How it was run: as §1
# [12] = target: Gal(b1-4)GlcNAc(b1-3)Gal(b1-4)GlcNAc(b1-3)[Gal(b1-4)GlcNAc(b1-3)Gal(b1-4)GlcNAc(b1-6)]GalNAc
# How it was run: as §1
# [13] = target: Gal(b1-4)GlcNAc(b1-3)Gal(b1-4)GlcNAc(b1-6)[Gal(b1-3)]GalNAc
# How it was run: as §1
# [14] = target: Gal(b1-4)GlcNAc(b1-3)Gal(b1-4)[Fuc(a1-3)]GlcNAc(b1-3)Gal(b1-4)[Fuc(a1-3)]GlcNAc
# How it was run: as §1
# [15] = target: Gal(b1-4)GlcNAc(b1-3)GalNAc
# How it was run: as §1
# [16] = target: Gal(b1-4)GlcNAc(b1-3)[Fuc(a1-3)GlcNAc(b1-6)]Gal(b1-4)Glc
# How it was run: as §1
# [17] = target: Gal(b1-4)GlcNAc(b1-3)[Gal(b1-4)GlcNAc(b1-6)]Gal(b1-4)GlcNAc
# How it was run: as §1
# [18] = target: Gal(b1-4)GlcNAc(b1-3)[Gal(b1-4)GlcNAc(b1-6)]GalNAc
# How it was run: as §1
# [19] = target: Gal(b1-4)GlcNAc(b1-3)[GlcNAc(b1-6)]Gal(b1-4)GlcNAc
# How it was run: as §1
binder,measurement,setting,value
B1,glycan array binding signal (z-score),[1],3.1
same,glycan array binding signal (z-score),[2],0.526
same,glycan array binding signal (z-score),[3],0.388
same,glycan array binding signal (z-score),[4],0.014
same,glycan array binding signal (z-score),[5],0.525
same,glycan array binding signal (z-score),[6],-0.187
same,glycan array binding signal (z-score),[7],-0.131
same,glycan array binding signal (z-score),[8],-0.233
same,glycan array binding signal (z-score),[9],0.195
same,glycan array binding signal (z-score),[10],-0.093
same,glycan array binding signal (z-score),[11],2.04
same,glycan array binding signal (z-score),[12],2.93
same,glycan array binding signal (z-score),[13],1.81
same,glycan array binding signal (z-score),[14],-0.19
same,glycan array binding signal (z-score),[15],-0.066
same,glycan array binding signal (z-score),[16],0.503
same,glycan array binding signal (z-score),[17],-0.166
same,glycan array binding signal (z-score),[18],-0.135
same,glycan array binding signal (z-score),[19],-0.213
